# Data taken from PubChem BioAssay AID1845210 (Molecular Pharmacology Branch, DTP, NCI, 2023).
# Certain results were filed several times, with different values. This is not the full list of results. An entry can have further records. Results that share an entry are repeats in other runs, samples, wells, individuals or studies. Signs of the kind (2×) give the number of equal values in this list.
# System: NCI-H226 complex tumor spheroids, viability
# Experiment: Anticancer human tumor NCI-H226 cell line growth inhibition;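 note: spheroids exposed to compound for 7 days; 100% = DMSO vehicle control viability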
# Conditions: stronger effect = lower value
# From the text: Multicellular complex tumor spheroid response to DNA repair inhibitors in combination with DNA-damaging drugs
# This study explores the anticancer activities of DNA-damaging drugs and inhibitors of DNA damage repair, both as single agents and in combinations. Complex tumor spheroids comprised of malignant cells, endothelial cells and mesenchymal stem cells served as an in vitro model for human solid tumors. This model system incorporates physiologically relevant features and patient-derived or established malignant cell lines with clinically relevant genetic alterations from many tumor types. Twenty-six patient-derived or established malignant cell lines were evaluated representing sarcoma, melanoma, small cell lung cancer (SCLC), non-small cell lung cancer (NSCLC), as well as bladder, ovarian and pancreatic cancers. The concentration ranges selected for each drug and investigational agent were based upon clinically achievable concentrations if the clinical Cmax of the agent was known.
# Compounds. The drugs and compounds olaparib (NSC753686), talazoparib (NSC767125), berzosertib (NSC777718), elimusertib (NSC800525), nedisertib (NSC802822), VX-984 (NSC792969), AZD-1390 (NSC803789), temozolomide (NSC362856), topotecan (NSC609699), trabectedin (NSC813783), staurosporine (NSC755774), and gemcitabine (NSC613327) were obtained from the National Cancer Institute (NCI) Developmental Therapeutics Program Chemical Repository. The FDA-approved anticancer drug set is available from the Developmental Therapeutics Program at https://dtp.cancer.gov/organization/dscb/obtaining/available_plates.htm. […] The stock solutions were prepared in dimethyl sulfoxide (DMSO, Sigma-Aldrich, St. Louis, MO, cat. D2650) at 400-fold the tested concentration and stored at -70 degrees C. Prior to their use, the stock solutions were diluted in fresh medium and the final DMSO concentration in the assay was 0.25% (v/v). All drugs and investigational agents were tested over a range starting from a high concentration at or near the clinical Cmax and decreasing in half-log increments. If the clinical Cmax for an agent had not been determined, the highest concentration tested was 10 microM.
# Cell Lines. The patient-derived cancer cell (PDC) lines: 156681-154-R-J1-PDC, 283228-195-R-J1-PDC, 287954-098-R-J1-PDC, 292921-168-R-J2-PDC, 349418-098-R-PDC, 425362-245-T-J1-PDC, 556581-035-R-J1-PDC, and BL0293-F563-PDC were received from the NCI Patient-Derived Models Repository (PDMR, https://pdmr.cancer.gov). The established cell lines HS-SY-2 (RRID:CVCL_8719), MPNST, and SYO-1 (RRID:CVCL_7146) were obtained from the Sloan Kettering Institute. The alveolar soft parts sarcoma cell line ASPS-1 (RRID:CVCL_S738) was established at the NCI and grown from internal seed stocks. The following established cell lines were purchased from the American Type Culture Collection (ATCC, Manassas, VA): G-401 (ATCC, cat. CRL-1441, RRID:CVCL_0270), SW982 (ATCC, cat. HTB-93, RRID:CVCL_1734), VA-ES-BJ (ATCC, cat. CRL-2138, RRID:CVCL_1785), NCI-H719 (ATCC, cat. CRL-5837, RRID:CVCL_1582), NCI-H196 (ATCC, cat. CRL-5823, RRID:CVCL_1509), NCI-H841 (ATCC, cat. CRL-5845, RRID:CVCL_1595), NCI-H1618 (ATCC, cat. CRL-5879, RRID:CVCL_1480), NCI-H1876 (ATCC, cat. CRL-5902, RRID:CVCL_1503), DMS 114 (ATCC, cat. CRL-2066; RRID:CVCL_1174), NCI-H211 (ATCC, cat. CRL-5824; RRID:CVCL_1529), and SW 1271 (ATCC, cat. CRL-2177, RRID:CVCL_1716). The small cell lung cancer cell line COR-L88 was purchased from Sigma-Aldrich (cat. 92031917-1VL, RRID:CVCL_1141). The non-small cell lung cancer cell lines NCI-H226 (RRID:CVCL_1544) and NCI-H322M (RRID:CVCL_1557) were established at the NCI and grown from internal seed stocks. Pooled donor human umbilical vein endothelial cells (HUVEC, Lonza, cat. CC-2519) and human mesenchymal stem cells (hMSC, Lonza, cat. PT-2501) were purchased from Lonza (Walkersville, MD).
# Cell Culture. All cells were maintained in an incubator at 37 degrees C and 5% CO2 with 95% humidity. […]
compound,measurement,setting,value
CC(C)n1c(=O)n(C)c2cnc3cc(F)c(-c4ccc(OCCCN5CCCCC5)nc4)cc3c21,"viability, T/C",compound alone 10 µM,"4.45%, 35%, 51.2%"
Cn1nnc2c(C(N)=O)ncn2c1=O,"viability, T/C",compound alone 1 µM,"96.8, 102, 99.6, 114, 104, 98.3, 109, 112, 107, 126%"
CC[C@@]1(O)C(=O)OCc2c1cc1n(c2=O)Cc2cc3c(CN(C)C)c(O)ccc3nc2-1,"viability, T/C",compound alone 0.00949 µM,"99.9, 96.9, 95.8, 81.4, 103, 77.1, 92.3, 89.4, 102, 92.7%"
COc1cc2c(cc1O)CCNC21CSC2c3c(OC(C)=O)c(C)c4c(c3C(COC1=O)N1C(O)C3Cc5cc(C)c(OC)c(O)c5C(C21)N3C)OCO4 (stereo unspecified),"viability, T/C",compound 94.9 pM,"107 (2×), 109, 77.1, 87.4, 101, 116, 118, 110%"
same,"viability, T/C",compound alone 0.0003 µM,"114 (2×), 123, 93, 124, 117 (2×), 112, 134, 121%"
same,"viability, T/C",compound alone 0.000949 µM,"119, 83.4, 88.5, 113 (2×), 107 (2×), 106, 118, 103%"
